# Results: the RNAGym collection of RNA variant scans (doi:10.1093/nar/gkz1192)
# The source gives no read counts; variants with many changes may rest on few reads.
# B1: CPEB3 Ribozyme (parent)
# chain: UAACAGGGGGCCACAGCAGAAGCGUUCACGUCGCAGCCCCUGUCAGAUUCUGGUGAAUCUGCGAAUUCUGCUGUAUAUCUC
# Variants of: B1
# Test: self-cleavage, relative activity (ratio to wild type); higher = more cleavage; in vitro, sequencing
# Method in brief: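 Barcoded CPEB3 ribozyme mutants, produced by rounds of error-prone PCR, self-cleaved while being transcribed with T7 RNA polymerase for 5 hours at 37°C and during a subsequent 15 min DNase I step before EDTA was added. Sequencing of template-switched cDNA on Illumina gave cleaved and total reads, and DNA sequencing assigned barcodes to variants. Each variant's relative activity is its cleaved/total read fraction divided by the unmutated ribozyme's fraction, averaged across three batches. A variant needed a minimum of 5 reads.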
row,Variant,self-cleavage
1,UAACUGGGGGCCACAGCAGAAGCGUUCACGUCGCUGCCCCUGUCAGAUUCUGGCGAAUCCGCGAAUUCUGCUGUAUAUCUC,0.14
2,UAACUGGGGGCCACAGCAGAAGCGUUCACGUCGCUGCCCCUGUCAGAUUCUGGUGAAUCUGCGAAUUCUGCUGUAUACCUC,0.55
3,UAACUGGGGGCCACAGCAGAAGCGUUCACGUCGCAGCCCCUGUCGGGUUCUGGUGAAUCUGCGGACUCUGCUGUAUAUCUC,0.17
4,UAACUGGGGGCCACAGCAGAAGCGUUCACGUCGCAGCCCCUGUCGGAUUCUGGUGUAUCUGCGAAUUCUGCUGUAUAUCUC,0.74
5,UAACUGGGGGCCACAGCAGAAGCGUUCACGUCGCAGCCCCUGUCGGAUUCUGGUGAGUCUGCGAAUUCCGCUGUAUAUCUC,0.26
6,UAACUGGGGGCCACAGCAGAAGCGUUCACGUCGCAGCCCCUGUCGGAUUCUGGUGAAUCUGCGGAUCCUGCUGUAUAUCAC,0.28
7,UAACUGGGGGCCACAGCAGAAGCGUUCACGUCGCAGCCCCUGUCGGAUUCUGGUGAAUCUGGGAAUUCUGCUGUAUAUCUC,0.38
8,UAACUGGGGGCCACAGCAGAAGCGUUCACGUCGCAGCCCCUGUCGGAUCCUGGUGAAUCUGCGAGUUCCGCUGUAUAUCUC,0.41
9,UAACUGGGGGCCACAGCAGAAGCGUUCACGUCGCAGCCCCUGUCGGAUCCUGGCGAAUCUGCGAAUUCUGCCGUAUAUCUC,0.27
10,UAACUGGGGGCCACAGCAGAAGCGUUCACGUCGCAGCCCCUGUCGGAUUCCGGUGAAUCUGCGAAUUCUGCUGUUUAUCUC,1.02
11,UAACUGGGGGCCACAGCAGAAGCGUUCACGUCGCAGCCCCUGUCGGAUUCUGGUGAACCUGCGAGUUCUGCUGUAUAUCUC,0.1
12,UAACUGGGGGCCACAGCAGAAGCGUUCACGUCGCAGCCCCUGUCGGAUUCUGGUGAAUCUGCGAAUUCUGCUGCAUAUCUC,1.08
13,UAACUGGGGGCCACAGCAGAAGCGUUCACGUCGCAGCCCCUGUCUGGUUCUGGUGAAUCAGCGAAUUCUGCUGUAUAUCUC,1.11
14,UAACUGGGGGCCACAGCAGAAGCGUUCACGUCGCAGCCCCUGUCUGAUUCUGGUGAAUCUGCGUAUUUUGCUGUAUAUCUC,0.12
15,UAACUGGGGGCCACAGCAGAAGCGUUCACGUCGCAGCCCCUGUCUGAUUCUGGUGAAUCUGCGAAUUCUACUGUAUACCUC,0.22
16,UAACUGGGGGCCACAGCAGAAGCGUUCACGUCGCAGCCCCUGUCUGACUCCGGUGAAUCUGCGAAUUCUGCUGUAUAUCUC,0.39
17,UAACUGGGGGCCACAGCAGAAGCGUUCACGUCGCAGCCCCUGUCUGACUCUGGUGAAUCUGCGAAACCUGCUGUAUAUCUC,0.12

row,Variant,self-cleavage
1,UAACUGGGGGCCACAGCAGAAGCGUUCACGUCGCAGCCCCUGUCUGAUCCCGGUGAAUCUGCGGAUUCUGCUGUAUAUCUC,0.09
2,UAACUGGGGGCCACAGCAGAAGCGUUCACGUCGCAGCCCCUGUCUGAUUCUGGUGAAUCCGCGAAUUCUGCUGUAUAUCUC,0.83
3,UAACUGGGGGCCACAGCAGAAGCGUUCACGUCGCAGCCCCUGUCUGAUUCUGGUGAAUCUGCGAAUCCUGCUGUAUAUCUC,0.14
4,UAACUGGGGGCCACAGCAGAAGCGUUCACGUCGCAGCCCCUGUCAGGUUCUGGUGAAUUUGCGAAUUCUGCUGUAUAUCUC,0.7
5,UAACUGGGGGCCACAGCAGAAGCGUUCACGUCGCAGCCCCUGUCAGGUUCGGGUGAAUCUGCGAACUCUGCUGUAUAUCUU,0
6,UAACUGGGGGCCACAGCAGAAGCGUUCACGUCGCAGCCCCUGUCAGGUUCGGGUGAAUCUGCGAACUCUGCUGCAUAUCUC,0.09
7,UAACUGGGGGCCACAGCAGAAGCGUUCACGUCGCAGCCCCUGUCAGGUUCUGGUGAAUCUGCGAAUCCUGCUGUAUACCCC,0.17
8,UAACUGGGGGCCACAGCAGAAGCGUUCACGUCGCAGCCCCUGUCAGGUUCUGGUGAAUCUGCGAAUUCAGCUGUAUAUCCC,0.63
9,UAACUGGGGGCCACAGCAGAAGCGUUCACGUCGCAGCCCCUGUCAGGUUCUGGUGAAUCUGCGAAUUCCGCUGGAUGUCUC,0.76
10,UAACUGGGGGCCACAGCAGAAGCGUUCACGUCGCAGCCCCUGUCAGUCUCUGGUGAAUCUGCGAAUUCUGCCGCAUAUCUC,0.17
11,UAACUGGGGGCCACAGCAGAAGCGUUCACGUCGCAGCCCCUGUCAGUUUCUGGUGAAUCAGCGAAUUCUGCUGUAUAUCUC,0.18
12,UAACUGGGGGCCACAGCAGAAGCGUUCACGUCGCAGCCCCUGUCAGAUUCUGGUGGAUCUGCGAUUUCUGCUGUAUAUCUC,0.15
13,UAACUGGGGGCCACAGCAGAAGCGUUCACGUCGCAGCCCCUGUCAGAUUCUGGUGGAUCUGCGAAUUCUGCUGUAUGUCUC,0.86
14,UAACUGGGGGCCACAGCAGAAGCGUUCACGUCGCAGCCCCUGUCAGAUUCUGGUGGAUCUGCGAAUCCUGCAGUAUAUCUC,0.28
15,UAACUGGGGGCCACAGCAGAAGCGUUCACGUCGCAGCCCCUGUCAGAUUCUGGUGUUUCUGCGUAUUCUGCUGUAUAUCUC,0.12
16,UAACUGGGGGCCACAGCAGAAGCGUUCACGUCGCAGCCCCUGUCAGAUUCUGGUGAGUCUGCGGAUUCUGCUGUAUAUCUC,1.02
17,UAACUGGGGGCCACAGCAGAAGCGUUCACGUCGCAGCCCCUGUCAGAUUCUGGUGAGUCUGCGAGUUCUGCUGUAUAUCUC,0.43
